# Source: the BET-seq Pho4 binding data (Le et al. 2018)
# The list shows a part of the results. Values were computed here from the reads of four pooled replicates and scatter widely.
# Target: T1, Pho4 (S. cerevisiae) (UniProt P07270)
# T1 sequence: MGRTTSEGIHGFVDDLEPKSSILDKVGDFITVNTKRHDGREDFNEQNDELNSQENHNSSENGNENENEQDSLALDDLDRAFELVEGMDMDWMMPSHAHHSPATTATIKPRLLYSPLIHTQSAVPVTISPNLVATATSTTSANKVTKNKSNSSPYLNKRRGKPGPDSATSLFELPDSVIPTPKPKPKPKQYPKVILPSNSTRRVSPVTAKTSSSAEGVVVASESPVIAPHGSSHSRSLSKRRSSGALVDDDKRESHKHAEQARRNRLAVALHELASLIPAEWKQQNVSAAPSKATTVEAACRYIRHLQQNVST
# Experiment: relative binding free energy (BET-seq); higher = weaker binding
# Details: reference: library average
row,Sequence,relative binding free energy [kJ/mol]
1,GGGATCACGTGAGGCG,0.962
2,TGAGGCACGTGTGTCG,-0.795
3,TCGGGCACGTGGATGT,-0.586
4,GGCAGCACGTGATGTG,0.293
5,TGTTCCACGTGGTAGG,0
6,TTTGACACGTGAGCAG,0.837
7,TTCTCCACGTGGTGTT,-0.167
8,TTATACACGTGGGGAG,-0.0418
9,CGTTACACGTGTATTG,0.795
10,AGATCCACGTGGAGTG,0.251
11,TGGTACACGTGTCTGG,0.335
12,ATAAACACGTGGTATG,-0.586
13,GTTGCCACGTGTTGTT,0
14,AAGTGCACGTGCAGCG,0.0418
15,TGATACACGTGAATTT,1.84
16,AATGTCACGTGATGGG,1.09
17,ATCGTCACGTGAATTT,2.09
18,ATATTCACGTGTCTGG,0.544
19,TTTTGCACGTGATCGG,0.293
20,TTTAGCACGTGTTAAG,-0.251
21,TGTAGCACGTGGCGAT,-0.544
22,GATAACACGTGCGTGT,-0.167
23,AGGGTCACGTGAAGAG,0.544

row,Sequence,relative binding free energy [kJ/mol]
1,ATGTACACGTGGAGGA,0.251
2,GTGATCACGTGTAGTG,0.711
3,TTGACCACGTGGGGGC,-0.711
4,TGTATCACGTGTTCTT,0.335
5,GGAGACACGTGTGTGA,0.711
6,AGAAACACGTGGTTGA,0.126
7,TTTGGCACGTGGTTGA,-0.377
8,TACTTCACGTGGTCGT,1
9,TGTGGCACGTGAGGGT,0.586
10,CGTGTCACGTGATTAA,0.837
11,ATTGCCACGTGTAGGG,-0.0837
12,AGTTGCACGTGACGCG,0.92
13,TTAGCCACGTGGGGAT,-0.962
14,AGTATCACGTGTTGCT,0.669
15,GGTATCACGTGGATTT,0.92
16,TAGTTCACGTGAGTAC,2.22
17,TATGGCACGTGGCTAG,-0.711
18,TGTATCACGTGTTTTC,1.09
19,ATAGTCACGTGTCAGG,0.335
20,GTAAACACGTGAGGTA,1.42
21,CGTAGCACGTGGAGTG,-0.377
22,TGTGTCACGTGAGTGG,1.3
23,AGTGGCACGTGTTGAT,-0.669

row,Sequence,relative binding free energy [kJ/mol]
1,TAGATCACGTGGTATG,0
2,ATCTTCACGTGTGCTG,1
3,TGGTTCACGTGCCTTG,0.377
4,CGTGACACGTGGCTGG,-0.293
5,GTCGTCACGTGGTGCT,0.377
6,TTGTTCACGTGATCAT,0.711
7,TTGTTCACGTGAGAGC,1.72
8,AGTAACACGTGGCTGG,-0.544
9,GGGCTCACGTGTAATG,1.46
10,ATCTTCACGTGGGGAT,0.711
11,TTTGTCACGTGTCATA,-0.209
12,ATTGCCACGTGTATAT,-0.126
13,TGGCTCACGTGTTCGG,0.795
14,TTGGTCACGTGCGTGG,0.544
15,ATATGCACGTGACTTT,0.0418
16,GAGGTCACGTGTCTAG,1
17,GTGGACACGTGTGAGT,0.335
18,TCCGTCACGTGTATGG,0.46
19,TAAATCACGTGTAGTG,0.167
20,TGGTACACGTGACGTG,0.377
21,AAGGACACGTGTGGGT,0.711
22,TAGCACACGTGGATGT,0.669
23,TGTCTCACGTGTGTCT,1.63

row,Sequence,relative binding free energy [kJ/mol]
1,GAGTTCACGTGTATGG,1.13
2,ACGTGCACGTGTTAGG,-0.795
3,CGGCACACGTGGGTGT,-0.209
4,TCGTACACGTGGTAAG,0.502
5,GAGTGCACGTGTTGCG,-0.167
6,TAAGTCACGTGACAGG,1.3
7,GGTATCACGTGATTGC,1
8,TGGCGCACGTGGTTAG,-0.586
9,AGAATCACGTGGTCGG,0.837
10,AGTTGCACGTGGTCAT,-0.502
11,CTCGGCACGTGTTTTT,-0.418
12,TGTAGCACGTGTTCAA,-0.377
13,AGGGCCACGTGGAGAG,-0.377
14,TATGTCACGTGTAGTC,0.209
15,GGGTGCACGTGTGTTT,0.335
16,GTAGTCACGTGGTTAT,0.711
17,GGCTTCACGTGGGAGT,1.09
18,GGCGGCACGTGAAGGT,0.92
19,TGGTCCACGTGGGTCG,-0.126
20,GGAGGCACGTGCTGGG,-0.544
21,TTTGGCACGTGATTAA,0.0837
22,GTATACACGTGAGGCT,1.17
23,AGACACACGTGTAGTG,0.753

row,Sequence,relative binding free energy [kJ/mol]
1,GGTAACACGTGTTGGA,0.837
2,GTGTGCACGTGTGTGC,-0.0837
3,CGGCGCACGTGTGCGG,-0.46
4,GATGGCACGTGTAATT,0.377
5,ATGGTCACGTGTTTTA,0.544
6,GGTACCACGTGTGGGC,0.586
7,GTGTTCACGTGGGTTG,0.46
8,CGGGGCACGTGGAGCA,-0.669
9,AGGGTCACGTGGTTCG,0.669
10,CGTTGCACGTGTGATG,0.126
11,GTTTTCACGTGTTGCG,1.38
12,GGGTTCACGTGGAGCG,1.26
13,GATTTCACGTGAAGTT,1.92
14,GGTCACACGTGTGGTT,0.669
15,TCATACACGTGAGTGG,0.879
16,TGTTACACGTGAATAT,0.962
17,TGAAACACGTGTTGTG,-0.251
18,TGACGCACGTGTGCTG,-0.209
19,TTTAGCACGTGTGGCT,-0.251
20,GTGCACACGTGGTATG,-0.46
21,ATTGTCACGTGAAATG,1.26
22,AAGTTCACGTGGGTAC,0.879
23,TGTGGCACGTGTCATA,-0.293
